Assay results published in the supplement of paper PMC11417369.
This is one part of the list.

tested on: PF3D7_0420300 AP2 domain 1 (GST-tagged); test: gcPBM binding intensity (ln(normalized median fluorescence intensity)); higher = stronger DNA binding
In short: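 DNA-binding domains from P. falciparum, fused to GST and produced in E. coli, were put on an Agilent 4 × 180k double-stranded probe array for 1 h in 1× PBS holding 1% milk, 0.2 mg/ml BSA, 0.5% salmon testes DNA and 0.03% Triton X-100. Probes were primer-extended, 36 bp long and drawn from intergenic genomic regions, with negative controls included. After Alexa488 anti-GST antibody detection and a 488 nm scan, binding intensity was set as the highest Masliner-normalised natural-log median intensity across replicate spots of either probe orientation.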

| Sequence | gcPBM binding intensity (ln) |
| --- | --- |
| TTTCCATATATAGAACGTACAAAGATCTTTGTTACT [XGTACX_site8972] | 9.14 |
| ATACATATATATATGTGTACATATTATATATACATA [XGTACX_site8420] | 9.2 |
| TATATATGGTATAATTGTACTAACGCCAACTATACC [XGTACX_site5853] | 9.19 |
| TAGCTTTTGCCTTTTTTTAAAAAAAAATAAATAAAT [TGCATGCA_negctrl_site242] | 8.65 |
| TATATATATTTATACACACAAACATAATACTACTTA [CACACA_site2022] | 9.62 |
| TGCATATACATATGTAGTACAATAATTTGAAAAAAA [XGTACX_site5239] | 9.09 |
| TTTTTTTTTATGTGCACACAAAAGATGCTTATATTT [CACACA_site2348] | 9.42 |
| ATATATATATATATAAAGTGAAGTATGAGGGAAATA [XGTACX_negctrl_site497] | 9.56 |
| TTATTATTTTATAACACACACATATAGATTATAGCT [CACACA_site6787] | 9.52 |
| TTTTGTATTTATGGATGTACATAATATGTTTTAAAC [XGTACX_site3278] | 9.11 |
| AAAAATTAAATATAAAGTACAAAATTAAAATCTTAA [XGTACX_site931] | 9.24 |
| TATGTATGTATTAATGCGCACACAAAAAATAACAAT [CACACA_site8551] | 9.62 |
| CAAAAGTATAATAATACACACACTTTAAAAGTTAAA [CACACA_site3343] | 9.67 |
| AAAAATAAAATAAAATAAAATAAACATACCATATGT [CACACA_negctrl_site594] | 9.49 |
| TAGATTCTTGAATAAGTGCAAAATATAATATTTATT | 8.92 |
| TAATATATGAGAAATTGTACAGAAAGGAATATGCTT [XGTACX_site5300] | 9.39 |
| TTACAAATGGTTTACACACACATAATTGTATCAATT [CACACA_site4167] | 9.78 |
| TATATATGTTCAATATGTACATATATATAAGTGTAT [XGTACX_site5157] | 9.22 |
| ATATTATTGTAGAAATGTACATATATATATATATAT [XGTACX_site1882] | 9.31 |
| AAGAAATATTTATACACACACACAAACATATATATA [CACACA_site1912] | 10.2 |
| TATATATATATATACACACACACACCCATATATATA [CACACA_site2538] | 10 |
| CTGTATTCATAATTCACACAAATGGTTTATATGAAT [CACACA_site4315] | 9.22 |

| Sequence | gcPBM binding intensity (ln) |
| --- | --- |
| CATACATACAGATATACACACATATATAATAATATA [CACACA_site5477] | 9.76 |
| CATATTTGCACTTTCACACATAAATATATAACTATA [CACACA_site6016] | 9.44 |
| TTTAAACAAGGATCCACACACCCCAAAAAAAAAAGA [CACACA_site680] | 9.8 |
| TTTTTATTTTTGTAGTGTACTTTATTTTTTTTGTTT [XGTACX_site8887] | 9.47 |
| TATATATATATATGTGCATGTTCCCCATGCTTCCAT [TGCATGCA_site366] | 9.03 |
| AAAATTATAATAATATGTACTTAAAAAATTTATATA [XGTACX_site632] | 9.1 |
| AATATATATATATATAGTACATATTTTTATTCATTA [XGTACX_site2156] | 9.02 |
| TATATGTATTTATATACACACATATTCTTTTGACAC [CACACA_site1206] | 9.46 |
| ATATATATATATATATGTACATATGTATATTTTTTT [XGTACX_site1299] | 9.12 |
| TTCTTCAAGGAAAACACATGCGCATTTTCACCAATT [TGCATGCA_site11] | 9.15 |
| AATACACAAATATATTGTACATATATATATATATAT [XGTACX_site2440] | 9.23 |
| ACTTATTATTAATATTGTACTCTTGAAAATTGTGGA [XGTACX_site6315] | 9.1 |
| CATATATAAATATAAATATATATATATATATATATG [XGTACX_negctrl_site493] | 8.96 |
| ATATATATTTTTTAAACACACACATAAATATTTGTG [CACACA_site8936] | 9.57 |
| TTATAATCCATAATTGCACACAATATATTCATATTT [CACACA_site3916] | 9.37 |
| AATATACAATAAAGGTGTACACATATATGATGCAAG [XGTACX_site7607] | 9.66 |
| AAAAAGAAAAAACTTACACACATATATACAGACATG [CACACA_site550] | 9.93 |
| AAAAAAAAATAAATAAATATATATAATATTTATGTT [GTGCAC_negctrl_site520] | 9.12 |
| TACAGATAATATATTGCACACGTCAGAATAATATAG [CACACA_site5036] | 9.51 |
| TGGTTAATATGTGAAAGTACATATTATATTAAAATG [XGTACX_site2636] | 9.16 |
| TATAACTTTTTTATTACACACCTATGCAATATTATA [CACACA_site6570] | 9.45 |
| AACAAATAAATAAATAAAAAGCAAATATGTCTATAT [GTGCAC_negctrl_site414] | 9.66 |

| Sequence | gcPBM binding intensity (ln) |
| --- | --- |
| ATAAAATAAGATCTTTTTTTTTTTTTTTTCTTTTCT [XGTACX_negctrl_site73] | 8.93 |
| ATTTATTTATTTATTTGTACATATAAATATATCAAA [XGTACX_site7383] | 8.99 |
| TATATTTATTTATACACATGCATATTTTAAGGGCTC [TGCATGCA_site885] | 9.28 |
| AGTATACAGATATATACACACATATATTTATTTATA [CACACA_site6279] | 9.57 |
| AAAGATGTTATATATATGTATATATATATGTAATAT [TGCATGCA_negctrl_site386] | 9.28 |
| CATATAATTATATATCGTACATATTAATATAATTAC [XGTACX_site401] | 9.12 |
| ATATATATATATATATGTACTTATAAGGTATATTTA [XGTACX_site3327] | 9.09 |
| TATGGTGTAATTTAGTGTATTATATTATTTTGGTTG [GTGCAC_negctrl_site445] | 9.66 |
| GTCTATTCAAAAAAGTGTACGGACATATAAACATAC [XGTACX_site6516] | 9.43 |
| TTAGCTATGATATATACACACCAACGAACGAAGAAA [CACACA_site6657] | 9.59 |
| TGCAGTCTGGAGAAAAGTACATAGTATCTGGTATCT [XGTACX_site2545] | 9.12 |
| ATATATATATTCCACACACACACAAAAAAAAAAAAA [CACACA_site3648] | 10.1 |
| TTTTTTTTTTTTTTTGCACACAGGGTGTAGGACAAG [CACACA_site2842] | 9.08 |
| CATTTGATAAGATACACACACAAGGAAAAAAATAAA [CACACA_site350] | 9.96 |
| TTATAATATCTATATATCTTTTACATTTATAAGTTT [CACACA_negctrl_site1473] | 9.18 |
| TATAATAATATTAACACACGTACAAAAGCAAACAAC [CACACA_site3494] | 10 |
| GTTATAGAAGCATTCACACACACACCCACATACACA [CACACA_site1465] | 10.1 |
| GAATGTTAACGTTGCACACAAAAAAAAAGTATACAT [CACACA_site2415] | 9.56 |
| AAACGATTACTGTGTACACACATAGTTATAAACATA [CACACA_site5195] | 9.48 |
| TTACATAATATATGTACACACGCAAATACTTAGAAT [CACACA_site320] | 9.55 |
| AGGATATGCAGACACACACACATATATATATATATA [CACACA_site2201] | 9.79 |
| TTTTTTAATAATAGGAAAATGAATATTATATCGAAT [TGCATGCA_negctrl_site543] | 8.99 |

| Sequence | gcPBM binding intensity (ln) |
| --- | --- |
| TTTTTTTTTTTTTCAAGTACATAACTTACCCCTTTT [XGTACX_site6207] | 8.72 |
| TTATATGCATAAAAACGTACAAAAATGTATTCATGT [XGTACX_site2215] | 9.3 |
| AAATAAAAACATAACAGTACAGTTAACATTTTTATA [XGTACX_site3479] | 9.32 |
| TATATATATATATATGTACACACATATATACCTTTC [CACACA_site8854] | 9.41 |
| CCAACATTTTTTAGAAGTACATTTTTATATTTATTA [XGTACX_site5179] | 9.1 |
| GATGGAAGGTGAAAGCGTACTTATTATAGTAATATA [XGTACX_site303] | 9.13 |
| AGGTACTTTTTTAAAACACACATATAATATATACAC [CACACA_site1065] | 9.5 |
| TGTAATAATCTTACATGTACATACATATATTATATA [XGTACX_site4012] | 9.23 |
| TACATTCATGTGTATTGTACAAACTATTTTATAATA [XGTACX_site7744] | 9.12 |
| TATATAATATATATAGTGCATAAGTTCAAAAGAATA [GTGCAC_site9805] | 9.21 |
| GCATATTTTATAATTTTACACACCATATAAAATAAT [CACACA_site8904] | 9.51 |
| ACAATCCTAACGACATGTACAAATATATATATTTTT [XGTACX_site7335] | 9.2 |
| TACATATTTTTTATGTGTACATATTTTTTATGTGTA [XGTACX_site443] | 9.2 |
| TTATATATTTATATTTGTACGTATAAATTTTTTTTT [XGTACX_site2833] | 9.09 |
| AAACAAAGAAAGAACACACATACACAATATACCTAC [CACACA_site2835] | 9.99 |
| ATATATGTGTATGTATGTACTCATTTTTGTATATAT [XGTACX_site490] | 9.47 |
| ATAATGATATATTATAAACACACAAAGATGAATATA [CACACA_site8914] | 9.59 |
| TATTTTGAAAAAGTTGCACACAAAATTTAAAAAAAA [CACACA_site8470] | 9.09 |
| CATTTAAATTATAAGTGTACACGATCATATTTCATC [XGTACX_site349] | 9.23 |
| TAAAAAATAAGATATACACACATATATATATATATA [CACACA_site2324] | 9.32 |
| ATTCACATACATTACTTACACACCATATTAATATAT [CACACA_site459] | 9.69 |
| AAAAAAAAAAAAAAGGAACACACAAGTAACAATAAA [CACACA_site8792] | 9.56 |
